Reference: PubChem BioAssay AID1963576 (National Center for Advancing Translational Sciences (NCATS), 2024)
In all, about 46,000 compounds went through this assay and about 60 (0.1%) were called active. Another 3% or so got no clear call; they are omitted. Calls follow the shape of the dose curve; as a rule, active = well fitted inhibition curve with a large enough effect; inconclusive = small, poorly fitted or top-dose-only effect; inactive = no such curve, though single readings can be large or run the other way. Some of the results follow.

Experiment: Primary qHTS assay for Inhibitors of ovarian cancer metastasis using an organotypic tumor microenvironment (TME) model. Also: nearly all actives have a fitted effect of over 65% in size.
Conditions: SKOV3ip1-GFP adhesion/invasion on 3D omental model, fluorescence; series mostly up to 45.8 µM; activity change, negative = inhibition: at the top concentration
Text: PI: Ernst Lengyel MD., Ph.D. Department of Obstetrics and Gynecology, Section of Gynecologic Oncology University of Chicago Medicine, Chicago, Illinois. The tumor microenvironment (TME) is a key determinant of metastatic efficiency. We performed a quantitative high-throughput screen (qHTS) of diverse medicinal chemistry tractable scaffolds (44,420 compounds) and pharmacologically active small molecules (386 compounds) using a layered organotypic, robust assay representing the ovarian cancer metastatic TME. This 3D model contains primary human mesothelial cells, fibroblasts, and extracellular matrix, to which fluorescently labeled ovarian cancer cells are added. Initially, 100 compounds inhibiting ovarian cancer adhesion/invasion to the 3D model in a dose-dependent manner were identified. Of those, eight compounds were confirmed active in five high-grade serous ovarian cancer cell lines and were further validated in secondary in vitro and in vivo biological assays. […] Specifically, NCGC00117362 and PP-121 inhibited ovarian cancer adhesion, invasion, and proliferation, whereas milciclib inhibited ovarian cancer invasion and proliferation. […] To evaluate the clinical potential of NCGC00117362, structure - activity relationship studies were performed. […] The three compounds identified have promise as therapeutics for prevention and treatment of ovarian cancer metastasis.
PROTOCOL TABLE (as described by Inglese J, Shamu CE and Guy RK. 2007) SEQUENCE No. (e.g., 1, 2, 3, etc.); […] (e.g., Cells, Incubation, Reagent, etc.); VALUE; DESCRIPTION. 1; Cells; 4 uL; primary human omental fibroblast, black, clear bottom, low base, 1536-well Aurora assay plate. 2; Incubation; 48 hr; 37C. 3; Cells; 3 uL; 1,200 SKOV3ip1-GFP cells. 4; Compounds; 23nL; acoustic dispenser. 5; Incubation; 2 hr; room temperature. 6; Incubation; 16 hr; 37C. 7; Wash; 5 uL; 1x PBS. 8; Fixing; 5 uL; 4% paraformaldehyde (PFA). 9; Incubation; 15 min; room temperature 10; Wash, 5 uL; 1x PBS. 11; Detection; Fluorescence, excitation filter 488 nm, emission filter 509 nm. NOTES (numbers refer to Sequence numbers above) 1. For the 1,536-well format, 40 primary human omental fibroblasts and 400 mesothelial cells were seeded with 0.02 µg fibronectin and 0.02 µg collagen type I in 4 µL of growth media (2.3 mm2; Supplementary Fig. S1A). 2. Assay plates were incubated for 48 hours at 37 C. 3. After incubation, 1,200 SKOV3ip1-GFP were seeded in 3 µL of serum-free media (growth media minus FBS) on top of primary human omental cells. 4. Compounds or controls were added to each well immediately after the addition of the cancer cells. Compounds were screened in four doses (0.36-46 µmol/L), and the plates contained the positive control (Tomatine) in eight doses (0.035-75 µmol/L) and DMSO (equal volume controls) 5 - 6. The plates were incubated at room temperature for 2 hours and then at 37 degrees C for 16 hours. 7 - 10. Following incubation, the media were aspirated and each well washed with PBS (5 µL) and then fixed with 4% paraformaldehyde (PFA; 5 µL). After 15 minutes, the PFA solution was aspirated, PBS (5 µL) was added. 11. The number of GFP-labeled cells analyzed using a fluorescent cytometer TTP LabTech Acumen eX3 using 488 nm excitation filter and 509 nm emission filter. Data was normalized to the DMSO treated for negative and Tomatine treated wells for positive control. REFERENCES: Inglese J, Shamu CE and Guy RK, Reporting data from high throughput screening of small molecule libraries, Nature Chemical Biology, 2007, 3(8): 438-441. doi.org/10.1038/nchembio0807-438. Yasgar A, Shinn P, Jadhav A, Auld DS, Michael S, Zheng W, Austin CP, Inglese J and Simeonov A, Compound Management for Quantitative High-Throughput Screening. J. Assoc. Lab. Auto., 2008, 13: 79-89. doi: 10.1016/j.jala.2007.12.004.

Activity change, negative = inhibition, inactive:
COC(=O)c1c(NC(=O)CCCOc2ccccc2)sc2c1CCC(C)C2 (configuration not stated) 6.84%, Cc1ccc(Cl)cc1NC(=O)C1CCCN(S(=O)(=O)c2c(C)noc2/C=C/N(C)C)C1 (configuration not stated) -15.4%, Cc1ccc2nc(/C(C#N)=C/c3ccc(-c4ccc(F)cc4F)o3)[nH]c2c1 -11.2%, Cc1cc(Nc2cccc(Cl)c2)nc2ccc(NC(=O)c3ccc(F)cc3Cl)cc12 -22.3%, Fc1ccc(C2=NC(c3cccc(C(F)(F)F)c3)=Nc3ccccc3N2)cc1 1.43%, Cc1ccc(CN2CCC(CNC(=O)Nc3c(C)cccc3C)C2)cc1 (configuration not stated) 5.74%, COc1ccccc1-c1c(C)nn2c(C(F)(F)F)cc(-c3ccccc3)nc12 13.8%, O=S1(=O)N=C(Nc2cccc(C(F)(F)F)c2)c2ccccc21 -7.29%, CN(C)CCN(Cc1ccc(Cl)cc1)c1ccccn1 -4.09%, O=C(c1ccc(CS(=O)c2ccccc2Cl)o1)N1CCN(c2ccccc2F)CC1 (configuration not stated) -34.3%, COc1ccc(CCCc2nnc(SCC(=O)Nc3ccc(C)c(C)c3)o2)cc1 6.06%, CC(C)NS(=O)(=O)c1ccc(OCC(=O)N2CCN(c3ccccc3F)CC2)cc1 -3.76%, Cc1cc(C)c2c(CC(=O)Nc3nnc(CC(C)C)s3)coc2c1 3.12%, CSc1cccc(NC(=O)c2ccc3c(c2)c(C)c(C)n3Cc2ccc(F)cc2)c1 -9.84%, CC(C)(C)c1ccc(OCC(=O)Nc2c(C(=O)c3ccc(F)cc3)oc3ccccc23)cc1 -1.12%, COc1cccc(C(=O)N(Cc2cccc(Cl)c2)Cc2ccco2)c1 13.8%, O=C(CCC1N=C2c3ccccc3N=C(SCc3cccc(Cl)c3)N2C1=O)NCc1cccs1 (configuration not stated) 1.45%, Cc1nn(C)c2c1c(-c1ccccc1)cc(=O)n2CC(=O)NC(C)(C)C 0.658%, CCC(C)n1c(=N)c(S(=O)(=O)c2ccccc2)cc2c(=O)n3ccccc3nc21 (configuration not stated) 1.46%, CCOC(=O)c1ccccc1NC(=O)CSc1ncc2c(n1)-c1ccccc1N(CC)S2(=O)=O 3.32%, CCOc1ccccc1NC(=O)N1CCN(Cc2cc(=O)n3nc(-c4ccc(C)cc4)sc3n2)CC1 -1.39%, CCOc1ccc(S(=O)(=O)N(CC(=O)NCCSCc2ccccc2)c2ccccc2)cc1 92.6%

outcome, inactive:
O=C(Nc1ccccc1C(=O)OCc1cc(=O)n2ccsc2n1)c1cccc(F)c1, CCC(=O)N1CCc2cc(S(=O)(=O)CCC(=O)N(C)c3ccc(OC)cc3)ccc21, CCc1ccc(S(=O)(=O)c2cn(C)c3cc(N4CCN(CC)CC4)c(F)cc3c2=O)cc1, CCC(=O)Nc1cccc(-c2cn3c(C)csc3n2)c1, Cc1ccc(NC(=O)Cn2c(=O)nc(-c3ccccc3F)c3cc(Cl)ccc32)c(Br)c1
